First the molecules themselves.
B1: CPEB3 Ribozyme (parent)
chain: UAACAGGGGGCCACAGCAGAAGCGUUCACGUCGCAGCCCCUGUCAGAUUCUGGUGAAUCUGCGAAUUCUGCUGUAUAUCUC

Drawing on the RNAGym collection of RNA variant scans (doi:10.1093/nar/gkz1192), this text covers self-cleavage for 34 variants.

The source gives no read counts; variants with many changes may rest on few reads.

Variants of B1 are the subject of this series. In words: self-cleavage, relative activity (ratio to wild type); higher = more cleavage; in vitro, sequencing. The procedure, abridged: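 CPEB3 self-cleaving ribozyme mutant libraries were made by rounds of error-prone PCR, barcoded, and transcribed in vitro with T7 RNA polymerase for 5 hours at 37°C. Cleavage occurred during transcription and a 15 min DNase I step before EDTA stop. RNAs were reverse transcribed with template switching and Illumina-sequenced, with DNA sequencing mapping barcodes to variants. Relative activity is the variant's cleaved/total read fraction divided by wild type's (minimum 5 reads), averaged across three batches.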
Consider UAACAGGGGGCCACAGCAGAAGCGUUCACGUCGCUGCCCCAGUCAGAUUCUGGUGAAUCUGCGAAUUCAGCUGUAUAUCUC [A35U U41A U69A], for which the self-cleavage worked out at 0.49.
As to UAACAGGGGGCCACAGCAGAAGCGUUCACGUCGCUGCCCCCGUCAGAUUCUGGUGAAUCUGCGAAUUCUGCUCUAUAUCUC [A35U U41C G73C], the self-cleavage is 1.11.
UAACAGGGGGCCACAGCAGAAGCGUUCACGUCGCUGCCCCAGUCAGACUCUGGUGAAUCUGCGGAUUCUGCAAUAUAUCUC [A35U U41A U48C A64G U72A G73A]: the self-cleavage was determined as 0.12.
With UAACAGGGGGCCACAGCAGAAGCGUUCACGUCGCUGCCCCUGUCAGAUUCUGGUGAAUCUGCCAUUUCAGCUGUAUAUCUC [A35U G63C A65U U69A], the self-cleavage was 0.13.
The result for UAACAGGGGGCCACAGCAGAAGCGUUCACGUCGCUGCCCCCGUCAGAUUCUGGUGAAUCUGCGAAUUCUGCUGUAAAUCUC [A35U U41C U76A] reads 0.52; that for UAACAGGGGGCCACAGCAGAAGCGUUCACGUCGCUUCCCCUGUUAGAUUCUGGUGAAUCUGCGAAUUCUGCUGUAUAUCUC [A35U G36U C44U], 0.12; that for UAACAGGGGGCCACAGCAGAAGCGUUCACGUCGCUGCCCUUGUCAGAUUCUGGUGAAUCUGCGAAUCCUGCCGUAUAUCUC [A35U C40U U67C U72C], 0.39.
UAACAGGGGGCCACAGCAGAAGCGUUCACGUCGCUUCCCCCGUCAGAUUCUGGUGAAUCUGCGAAUUCUGCUGUAUACCUC [A35U G36U U41C U78C]: the self-cleavage was determined as 0.17.
In the case of UAACAGGGGGCCACAGCAGAAGCGUUCACGUCGCUGCCUCUGUCAGAUUCUGGUGAAUCUGCGAAUUAUGCUGUAUAUCUC [A35U C39U C68A] it was 0.44.
In the case of UAACAGGGGGCCACAGCAGAAGCGUUCACGUCGCUGCCCCAGUCAGAUUCUGGUGAAUCUGCGAAUUCUUCUGCAUAUCUC [A35U U41A G70U U74C] it was 0.08.
Consider UAACAGGGGGCCACAGCAGAAGCGUUCACGUCGCUGCCCCUGUCAGAUUCUAGUGAAUCCGCGAAUUCUGCUGUAUAUCUC [A35U G52A U60C], for which the self-cleavage is 0.11.
For the variant UAACAGGGGGCCACAGCAGAAGCGUUCACGUCGCUGCCCUUGUCAGAUCCUGGUGAAUCUGCGAAUUCUGCUGUAUAUCUC [A35U C40U U49C], the self-cleavage amounted to 0.2.
In the case of UAACAGGGGGCCACAGCAGAAGCGUUCACGUCGCUGCCCCCGUCAGACUCUGGUGAAUCUGCGAAUUCUGCUGUAUAUCUC [A35U U41C U48C], the self-cleavage turned out to be 0.43.
Regarding UAACAGGGGGCCACAGCAGAAGCGUUCACGUCGCUGCCCCAGUCAGAUUCUGGUGAAUCUGCGAAGUCUGCUGUAUAUCUC [A35U U41A U66G], the self-cleavage is 0.21.
In the case of UAACAGGGGGCCACAGCAGAAGCGUUCACGUCGCUGCCCCUGUCAGAUUCUCGUGAAUCUGCGAAUUCCGCUGUAUAUCUC [A35U G52C U69C] it was 0.13.
On to UAACAGGGGGCCACAGCAGAAGCGUUCACGUCGCUGCCCCAGUCAGAUUCUGGUGAAUCUGCGAAUUCUGCUGUUUAUCUC [A35U U41A A75U], for which the self-cleavage came to 0.23.
With UAACAGGGGGCCACAGCAGAAGCGUUCACGUCGCUGCCCCCGUCAGAUUCUGGUGAAUCUGCGAAUUCUGCUGUAUGUCUC [A35U U41C A77G], the self-cleavage was found to be 0.65.
As to UAACAGGGGGCCACAGCAGAAGCGUUCACGUCGCUGCCCAUGACAGAUCCUGGUGGACCUGUGAAUUCUGCUGUAUAUCUC [A35U C40A U43A U49C A56G U58C C62U], the self-cleavage was 0.06.
In the case of UAACAGGGGGCCACAGCAGAAGCGUUCACGUCGCUACCCCUGUCAGAUUCUGGUGGAUCAGCGAAUUCUGCUGUAUAUCUC [A35U G36A A56G U60A], the self-cleavage was 0.07.
For UAACAGGGGGCCACAGCAGAAGCGUUCACGUCGCUUCCCCUGUCAGGUCCUGGUGAAUCUGCGAAUUCUGCUGUAUAUCUC [A35U G36U A47G U49C], the self-cleavage amounted to 0.36.
The result for UAACAGGGGGCCACAGCAGAAGCGUUCACGUCGCUGCCCCAGUCAGGUUCUGGUGAAACUGCAAAUUCUGCUGUAUAUCUC [A35U U41A A47G U58A G63A] reads 0.12.
The result for UAACAGGGGGCCACAGCAGAAGCGUUCACGUCGCUGCCCCAGUCUGAAUCUGGUGAAUCUGCGAAUUCUGUUGUAUCUCUC [A35U U41A A45U U48A C71U A77C] reads 0.07.
With UAACAGGGGGCCACAGCAGAAGCGUUCACGUCGCUGCCCCCGUCAGGUCCUGGCGAAUCUGCGAAUUCUGCUGUAUAUCGC [A35U U41C A47G U49C U54C U80G], the self-cleavage stood at 0.35.
The result for UAACAGGGGGCCACAGCAGAAGCGUUCACGUCGCUGCCCCAGUUAGAUUCUGGUGAAUAUGCGAUUUCUGCUGUAUAUCUC [A35U U41A C44U C59A A65U] reads 0.1.
Take UAACAGGGGGCCACAGCAGAAGCGUUCACGUCGCUGCCCCAGUCAGAUUCUGGUGAAUCUGCGAAUUCUGCUGUAUGUCUC [A35U U41A A77G]: the self-cleavage is 0.19.
UAACAGGGGGCCACAGCAGAAGCGUUCACGUCGCUGCCCCUGUCAGAUUCUGAUGAAUCAGCGAAUUCUGCUGUAUAUCUC [A35U G53A U60A]: the self-cleavage worked out at 0.14.
Take UAACAGGGGGCCACAGCAGAAGCGUUCACGUCGCUGCCCCCGUCAGAUUAUGGUGAAUCUGCGAAUUCUGCAGUAUAUCUC [A35U U41C C50A U72A]: the self-cleavage is 0.29.
In the case of UAACAGGGGGCCACAGCAGAAGCGUUCACGUCGCUGCCCCUGUCAGAUUCUGGUGAAUCUGCUAAUUCUGCUGUAUAUCCC [A35U G63U U80C] it was 0.71; in that of UAACAGGGGGCCACAGCAGAAGCGUUCACGUCGCUGCCCCAGUCAGAUUCUGGUGAAUCCGCGAAUUCUGCUGUAUUUCUC [A35U U41A U60C A77U], 0.15; in that of UAACAGGGGGCCACAGCAGAAGCGUUCACGUCGCUGCCCCCGUCAGAUUCUGGUGAAUCUGCGAAUUCUGCUGUAUACCUC [A35U U41C U78C], 0.49.
Take UAACAGGGGGCCACAGCAGAAGCGUUCACGUCGCUGCCCUCGUCAGAUACUGGUGAAUCUGCGAAUUCUGCUGUAUAUCGC [A35U C40U U41C U49A U80G]: the self-cleavage worked out at 0.22.
With UAACAGGGGGCCACAGCAGAAGCGUUCACGUCGCUGCCCCCGUCAAAUUCUGGUGAAUCUGCGAAUUCUGCUGUAUAUCUC [A35U U41C G46A], the self-cleavage came to 0.19.
As for UAACAGGGGGCCACAGCAGAAGCGUUCACGUCGCUGCCCCCGUCAGAUUCUGGUGAACCUGCGAAUUCUGCUGUAUAUCCC [A35U U41C U58C U80C], the self-cleavage turned out to be 0.41.
Take UAACAGGGGGCCACAGCAGAAGCGUUCACGUCGCUGCCCUUGUCAGAUUCUGGUGAAUCUGCGAAUUCAGCUGUAUAUCUC [A35U C40U U69A]: the self-cleavage worked out at 0.4.
